Assay results reported in publication PMC5016123.
Results are given in words; binding and its absence hold for the method and conditions named. In cells and extracts the contact can be indirect. Some results given as binding are weak or reduced against the parent protein; the word gives no strength. Sequences can lack the tags named with a protein.

T1: GST-fused polo-box domain (PBD) of Cdc5, wild type (S. cerevisiae) (UniProt P32562)
T1 sequence: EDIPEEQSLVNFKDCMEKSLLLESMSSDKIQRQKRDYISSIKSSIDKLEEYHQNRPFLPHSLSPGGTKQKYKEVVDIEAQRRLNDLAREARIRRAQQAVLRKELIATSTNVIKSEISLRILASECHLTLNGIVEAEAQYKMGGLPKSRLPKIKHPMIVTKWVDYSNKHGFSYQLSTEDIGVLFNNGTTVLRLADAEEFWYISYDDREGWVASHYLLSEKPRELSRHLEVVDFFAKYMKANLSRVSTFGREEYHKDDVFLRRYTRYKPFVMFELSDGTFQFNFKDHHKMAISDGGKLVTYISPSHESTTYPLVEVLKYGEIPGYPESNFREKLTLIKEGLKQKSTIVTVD

T2: GST-fused polo-box domain (PBD) of Cdc5 carrying the mut1 mutation (W517F, V518A, L530A) (S. cerevisiae) (UniProt P32562)
T2 sequence: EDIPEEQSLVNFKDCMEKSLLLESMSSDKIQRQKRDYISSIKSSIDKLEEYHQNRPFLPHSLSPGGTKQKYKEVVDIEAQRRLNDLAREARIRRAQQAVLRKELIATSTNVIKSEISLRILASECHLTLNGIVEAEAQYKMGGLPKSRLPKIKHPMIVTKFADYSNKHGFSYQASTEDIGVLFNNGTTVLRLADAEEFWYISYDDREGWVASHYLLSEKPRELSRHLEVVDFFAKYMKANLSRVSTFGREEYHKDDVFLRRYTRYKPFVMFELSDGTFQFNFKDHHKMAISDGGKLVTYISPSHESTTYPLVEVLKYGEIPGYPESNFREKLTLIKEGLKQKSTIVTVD


Legend:
[1] = biological target: T1, GST-fused polo-box domain (PBD) of Cdc5, wild type (S. cerevisiae); test: pull-down; GST-fused PBD, Cdc5 or GST only and an HA-tagged cohesin subunit or Scc1 fragment co-overexpressed in G2/M-arrested (benomyl) yeast cells; clarified lysate on glutathione-Sepharose 4B beads 1 h at 4 °C; 40 mM Hepes-KOH pH 7.4, 140 mM NaCl, 10% glycerol, 0.1% Triton X-100, 1 mM DTT, protease and phosphatase inhibitors; three washes; anti-HA and anti-GST Western blot
[2] = biological target: T2, GST-fused polo-box domain (PBD) of Cdc5 carrying the mut1 mutation (W517F, V518A, L530A) (S. cerevisiae); test: as above

Binder	binding [1]	binding [2]
HA-tagged cohesin subunit Smc3 (protein, UniProt P47037 1-1230) MYIKRVIIKGFKTYRNETIIDNFSPHQNVIIGSNGSGKSNFFAAIRFVLSDDYSNLKREERQGLIHQGSGGSVMSASVEIVFHDPDHSMILPSGVLSRGDDEVTIRRTVGLKKDDYQLNDRNVTKGDIVRMLETAGFSMNNPYNIVPQGKIVALTNAKDKERLQLLEDVVGAKSFEVKLKASLKKMEETEQKKIQINKEMGELNSKLSEMEQERKELEKYNELERNRKIYQFTLYDRELNEVINQMERLDGDYNNTVYSSEQYIQELDKREDMIDQVSKKLSSIEASLKIKNATDLQQAKLRESEISQKLTNVNVKIKDVQQQIESNEEQRNLDSATLKEIKSIIEQRKQKLSKILPRYQELTKEEAMYKLQLASLQQKQRDLILKKGEYARFKSKDERDTWIHSEIEELKSSIQNLNELESQLQMDRTSLRKQYSAIDEEIEELIDSINGPDTKGQLEDFDSELIHLKQKLSESLDTRKELWRKEQKLQTVLETLLSDVNQNQRNVNETMSRSLANGIINVKEITEKLKISPESVFGTLGELIKVNDKYKTCAEVIGGNSLFHIVVDTEETATLIMNELYRMKGGRVTFIPLNRLSLDSDVKFPSNTTTQIQFTPLIKKIKYEPRFEKAVKHVFGKTIVVKDLGQGLKLAKKHKLNAITLDGDRADKRGVLTGGYLDQHKRTRLESLKNLNESRSQHKKILEELDFVRNELNDIDTKIDQVNGNIRKVSNDRESVLTNIEVYRTSLNTKKNEKLILEESLNAIILKLEKLNTNRTFAQEKLNTFENDLLQEFDSELSKEEKERLESLTKEISAAHNKLNITSDALEGITTTIDSLNAELESKLIPQENDLESKMSEVGDAFIFGLQDELKELQLEKESVEKQHENAVLELGTVQREIESLIAEETNNKKLLEKANNQQRLLLKKLDNFQKSVEKTMIKKTTLVTRREELQQRIREIGLLPEDALVNDFSDITSDQLLQRLNDMNTEISGLKNVNKRAFENFKKFNERRKDLAERASELDESKDSIQDLIVKLKQQKVNAVDSTFQKVSENFEAVFERLVPRGTAKLIIHRKNDNANDHDESIDVDMDAESNESQNGKDSEIMYTGVSISVSFNSKQNEQLHVEQLSGGQKTVCAIALILAIQMVDPASFYLFDEIDAALDKQYRTAVATLLKELSKNAQFICTTFRTDMLQVADKFFRVKYENKISTVIEVNREEAIGFIRGSNKFAEV	no binding	no binding
HA-tagged cohesin subunit Smc1 (protein, UniProt P32908 1-1225) MGRLVGLELSNFKSYRGVTKVGFGESNFTSIIGPNGSGKSNMMDAISFVLGVRSNHLRSNILKDLIYRGVLNDENSDDYDNEGAASSNPQSAYVKAFYQKGNKLVELMRIISRNGDTSYKIDGKTVSYKDYSIFLENENILIKAKNFLVFQGDVEQIAAQSPVELSRMFEEVSGSIQYKKEYEELKEKIEKLSKSATESIKNRRRIHGELKTYKEGINKNEEYRKQLDKKNELQKFQALWQLYHLEQQKEELTDKLSALNSEISSLKGKINNEMKSLQRSKSSFVKESAVISKQKSKLDYIFKDKEKLVSDLRLIKVPQQAAGKRISHIEKRIESLQKDLQRQKTYVERFETQLKVVTRSKEAFEEEIKQSARNYDKFKLNENDLKTYNCLHEKYLTEGGSILEEKIAVLNNDKREIQEELERFNKRADISKRRITEELSITGEKLDTQLNDLRVSLNEKNALHTERLHELKKLQSDIESANNQEYDLNFKLRETLVKIDDLSANQRETMKERKLRENIAMLKRFFPGVKGLVHDLCHPKKEKYGLAVSTILGKNFDSVIVENLTVAQECIAFLKKQRAGTASFIPLDTIETELPTLSLPDSQDYILSINAIDYEPEYEKAMQYVCGDSIICNTLNIAKDLKWKKGIRGKLVTIEGALIHKAGLMTGGISGDANNRWDKEEYQSLMSLKDKLLIQIDELSNGQRSNSIRAREVENSVSLLNSDIANLRTQVTQQKRSLDENRLEIKYHNDLIEKEIQPKITELKKKLDDLENTKDNLVKEKEALQNNIFKEFTSKIGFTIKEYENHSGELMRQQSKELQQLQKQILTVENKLQFETDRLSTTQRRYEKAQKDLENAQVEMKSLEEQEYAIEMKIGSIESKLEEHKNHLDELQKKFVTKQSELNSSEDILEDMNSNLQVLKRERDGIKEDIEKFDLERVTALKNCKISNINIPISSETTIDDLPISSTDNEAITISNSIDINYKGLPKKYKENNTDSARKELEQKIHEVEEILNELQPNARALERYDEAEGRFEVINNETEQLKAEEKKILNQFLKIKKKRKELFEKTFDYVSDHLDAIYRELTKNPNSNVELAGGNASLTIEDEDEPFNAGIKYHATPPLKRFKDMEYLSGGEKTVAALALLFAINSYQPSPFFVLDEVDAALDITNVQRIAAYIRRHRNPDLQFIVISLKNTMFEKSDALVGVYRQQQENSSKIITLDLSNYAE	no binding	no binding
HA-tagged cohesin subunit Scc3 (protein, UniProt P40541 1-1150) MTAVRRSTRIRTKSQVIEEDYDDEQNTSAQHVESDKITAKTQHEEEEEQDTGESEESSSEDDYEDQDDDDYVDTATAKRKSRKRKPKSASNTSSKRQKKKPTSAQKSAVSHAPAYHRSKKDQDQYLEIAKDFQPTELFDILSTSEDVSIEELLREWLETYSENRDKFLQEFINLLLNCCGSVARVEDHDVHSNESSNETIGEIQLLFQRQKLHEFYLLISKENKKRKNFKMGPLYQNFAEFMTKLLEVANDLQLLYVESDEDDTQIVTGNLVLDLLTWLSSFSVCKIRCFRYISTLTLYLFQDYLTQQAVNLEKNYLAKLSKQLSLEEKKKRPNNKTLEKLESTIAETQGSKVVIDSIIDNIVKLCFVHRYKDVSDLIRSESMLHLSIWIKNYPEYFLKVTFLKYFGWLLSDNSVSVRLQVTKILPHLIIQNHNSKSTDNSAIRQVFERFKTKILEVAIRDVNLDVRIHSIQVLTEASSLGYLDDSEILIISSLMFDEEFDPFKTSSFNKRSKFLSTVAKFLARVIKEKFDEFIKTHEDLPKEVDGLEVGPVVQVGIFIKILNDSLIYHLKDCAEVDSRTKIRMLTQAAEFLSPYISTHLKTICNLLISDTESNELIQKLQNSANNNSDDEDVDDEELDITPLFPIDRNSTILYLNVFHGLCAGANNPKIQTKDSVKEIVLPLFYDLLNAASIESADILCPLLESFITFSLDDWISIGYETELKKITDKTIKAFMDSTIGNSKVDMKYDIFAKFIHHIHHFEKKELQEKFLNQIATLKIHLKKFLQEKMDPNNSRDDYKDLTCSLYELYINKLTILGRDYPIEVDEELLQLFLNNFVSRIPIMFQDFDDSTAQEINFKMLVLLATWNLEKWREIIEKVRDYENSISKDLRSVWKPIAAIIGRLNTLVISLAATNETFENINSLFYLKWSACTSLMDIIVAIKIFELKLPADATTWRYSMSEQFPFYLHDNASKVLLKIFLYLESLFAKQVDVQLERVADEDANLNDLPETGFFENIETEFLLFTVKLKGLMKLNILDERFASRVALNKEKLGPLFKKIVDDTIMENPEPNKKNIQKAKSNQTQREKAPLQPNSERETDHANTENNDPDIPMTIDLEPIEESSQNNSELAPIEEHPTVVDAIDNSDEITQD	no binding	–
HA-tagged Scc1 M fragment with five serines substituted to alanine (M-5A) (domain or fragment, UniProt Q12158 158-275) QENSMERKVQGAAPWDTSLEVGRRFAPDEDFEHNNLAAMNLDFDIEEGPITSKSWEEGTRQAARNFDTHENYIQDDDFPLDDAGTIGWDLGITEKNDQNNDDDDNSVEQGRRLGESIM	binds weakly	–

Now from value to binder:

binding [1]	binding [2]	Binder
binds	–	HA-tagged Scc1 fragment NM (amino acids 1-269) (domain or fragment, UniProt Q12158 1-269) MVTENPQRLTVLRLATNKGPLAQIWLASNMSNIPRGSVIQTHIAESAKEIAKASGCDDESGDNEYITLRTSGELLQGIVRVYSKQATFLLTDIKDTLTKISMLFKTSQKMTSTVNRLNTVTRVHQLMLEDAVTEREVLVTPGLEFLDDTTIPVGLMAQENSMERKVQGAAPWDTSLEVGRRFSPDEDFEHNNLSSMNLDFDIEEGPITSKSWEEGTRQSSRNFDTHENYIQDDDFPLDDAGTIGWDLGITEKNDQNNDDDDNSVEQGRR
binds weakly	–	HA-tagged Scc1 M fragment M-10A+plk(−) (domain or fragment, UniProt Q12158 158-275) QENAMERKVQGAAPWDAALEVGRRFSPDEDFEHNNLSSMNLDFDIEEGPIAAKAWEEGARQSSRNFDAHENYIQDDDFPLDDAGAIGWDLGIAEKNDQNNDDDDNAVEQGRRLGEAIM
binds	–	HA-tagged Scc1 M fragment with alanine substitution of the two Cdc5 phosphorylation sites (M-plk(−)) (domain or fragment, UniProt Q12158 158-275, slowly migrating (phosphorylated) forms still present; sites not determined) QENSMERKVQGAAPWDTALEVGRRFSPDEDFEHNNLSSMNLDFDIEEGPITSKSWEEGTRQSSRNFDTHENYIQDDDFPLDDAGTIGWDLGITEKNDQNNDDDDNAVEQGRRLGESIM
